# According to PubChem BioAssay AID493208 (National Center for Advancing Translational Sciences (NCATS), 2011):
# About 340 (0.77%) of roughly 44,000 compounds were called active. About 5% were inconclusive and are not listed. Calls follow the shape of the dose curve; as a rule, active = well fitted inhibition curve with a large enough effect; inconclusive = small, poorly fitted or top-dose-only effect; inactive = flat fitted curve, though single readings scatter. This is one part of the list.
# Assay: Acumen qHTS Assay for Inhibitors of the mTORC1 Signaling Pathway in MEF (Tsc2-/-, p53-/-) Cells: Sytravon;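 also: plate controls were DMSO for no effect and rapamycin for full effect; nearly all actives have a fitted effect of over 50% in size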
# Details: phospho-rpS6 immunofluorescence/PI, 24 h; series mostly up to 38.3 µM; activity change, negative = inhibition: at the top concentration
# How it was run: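 Cell-based qHTS: Tsc2-/- p53-/- MEF, 24 h cpd, 37 °C; fix/perm, anti-phospho-S6 Alexa-488 + PI; Acumen 488 nm scan; pS6/PI ratio, % positive cells; rapamycin 7.5 nM = inhibition ref; PI count = viability.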
row,Compound,"activity change, negative = inhibition"
1,O=C(Nc1cccc2c1CCCC2)N1CCOc2ccc(Cl)cc21,inactive: 0.351%
2,CCCC(=O)Nc1ccc2nc(SCC(=O)N3CCOCC3)sc2c1,inactive: -13.3%
3,N#C/C(=C\c1ccc(-c2cccc(Cl)c2)o1)C(=O)Nc1cccc(C(F)(F)F)c1,inactive: -15.7%
4,Cc1oc2ncnc(N3CCOCC3)c2c1C(=O)NCc1ccc(Cl)cc1,inactive: -3.81%
5,Fc1ccc(N2CCN(c3ncnc4[nH]ncc34)CC2)cc1,inactive: -1.09%
6,CCc1c(C)nc2nncn2c1Nc1ccc(Cl)cc1,inactive: -12.4%
7,COc1ccc(-n2c(=O)c3c4c(sc3n(Cc3ccc(C)cc3C)c2=O)CCC4)c(OC)c1,inactive: -5.5%
8,CCc1nc2ccccc2n2c(-c3ccccc3)c3c(=O)n(C)c(=O)n(C)c3c12,inactive: -14.5%
9,CCC(C(=O)Nc1ccc(C(C)=O)cc1)n1cnc2nc3c(cc2c1=O)CCCC3 (stereo not drawn),inactive: -6.73%
10,CCOc1ccccc1NS(=O)(=O)c1ccc2c(c1)CC(C)N2C(=O)C1CC1 (stereo not drawn),inactive: -18.5%
11,COc1ccc(OC)c(CNC(=O)Cn2ncc3c([nH]c4ccc(C)cc43)c2=O)c1,inactive: 2.87%
12,COc1cc(C(CC(=O)NCc2ccccc2)N2Cc3ccccc3C2=O)cc(OC)c1OC (stereo not drawn),inactive: -11.8%
13,O=C(NCCc1csc(-c2ccc(F)cc2)n1)c1ccco1,inactive: 2.03%
14,CC1=C(C(=O)Nc2cc(Cl)ccc2C)C2(CCCCC2)OC1=O,inactive: -0.504%
15,Cc1cc(C)n2nc(CNC(=O)c3ccccc3Cl)nc2n1,inactive: -6.62%
16,Cc1cc(C)cc(NC(=O)CCc2nnc3n(C)c(=O)c4sccc4n23)c1,inactive: -7.34%
17,CCSc1ccc(C(=O)Nc2ccc(-c3nc4ccc(C)cc4s3)cc2)cc1,inactive: -0.351%
18,COC(=O)c1c(SC)nc2ccccc2c1OCc1ccccc1Cl,inactive: 3.67%
19,CCOc1ccc(NC(=O)C2CCN(c3nc4ccccc4[nH]3)CC2)cc1,inactive: -7.16%
20,COC(=O)C1=C(C)N=C2SCCC(=O)N2C1c1ccc(OCc2ccccc2)c(OC)c1 (stereo not drawn),inactive: -0.728%
21,CCOC(=O)c1c(C)[nH]c(C)c1S(=O)(=O)N(C)CC(=O)N1CCN(c2ccc(Cl)cc2)CC1,inactive: 2.9%
22,CCOc1ccc(CN2CCc3nc(N4CCN(c5ncccn5)CC4)ncc3C2)cc1OC,inactive: 0%
23,CCC(CC)C(=O)OCc1cc(=O)n2nc(C3CCCCC3)sc2n1,inactive: -7.53%
24,Cc1ccc(-c2c(C(=O)N3CCN(c4cccc(C)c4)C(C)C3)oc(=O)c3ccccc23)cc1 (stereo not drawn),inactive: 4.21%

row,Compound,"activity change, negative = inhibition"
1,CC(C)(C)OC(=O)N1CCC(c2c(C(=O)NCCc3ccsc3)cnn2-c2ccccc2Cl)CC1,inactive: -3.04%
2,CCOc1ccc(N2C(=O)CS(=O)(=O)C23C(=O)N(Cc2cccc(Cl)c2)c2ccccc23)cc1 (stereo not drawn),inactive: 2.26%
3,COc1ccc(N2CC(NC(=O)COc3ccc(F)cc3)CC2=O)cc1OC (stereo not drawn),inactive: 0.112%
4,CC(C)(C)OC(=O)N1CCC(c2c(C(=O)Nc3ccc4c(c3)OCCO4)cnn2-c2ccc(F)cc2F)CC1,inactive: -21%
5,Cn1cnc2c(=O)oc3ccc(S(=O)(=O)N4CCN(c5cccc(C(F)(F)F)c5)CC4)cc3c21,inactive: 0.225%
6,CCOC(=O)C(=O)NCC(c1cccnc1)N1CCN(c2ccccc2)CC1 (stereo not drawn),inactive: 9.97%
7,CCOC(=O)CC(NC(=O)c1cc2cc(Br)cc(OC)c2oc1=O)c1ccc(OC)cc1 (stereo not drawn),inactive: 0.503%
8,Cc1ccc(-c2nc3c(c(SCC(=O)N(C)c4ccccc4)n2)Cc2c(CO)cnc(C)c2O3)cc1,inactive: -0.415%
9,O=C(Nc1cccc(OCc2cc(=O)n3ccccc3n2)c1)c1ccccc1Br,inactive: -0.0609%
10,COc1ccc(S(=O)(=O)NCCc2nnc3ccc(SCC(=O)Nc4cc(C)cc(C)c4)nn23)cc1,inactive: 3.45%
11,Cn1c(=O)n(C)c2cc(N3CCOCC3)c(NC(=O)c3ccc(Cl)cc3)cc21,inactive: 7.82%
12,O=C(NCc1ccc2c(c1)CCN2C(=O)c1ccncc1)c1ccccc1Cl,inactive: -4.05%
13,O=C1C(=O)N(C2CCN(S(=O)(=O)c3ccccc3)CC2)CCN1Cc1ccccc1,inactive: 3.01%
14,COc1cccc(N2CCN(C(=O)C3CCCN(S(=O)(=O)c4ccc5c(c4)oc(=O)n5C)C3)CC2)c1 (stereo not drawn),inactive: -1.75%
15,COc1ccccc1CCNC(=O)C(=O)NCC(c1ccco1)S(=O)(=O)c1ccc(F)cc1 (stereo not drawn),inactive: -0.579%
16,Cn1c(=O)c2c(nc(CN3CCN(c4ccccc4F)CC3)n2Cc2ccccc2F)n(C)c1=O,inactive: -1.39%
17,Cn1c2ccccc2c2c(C(=O)N3CCN(c4cccc(Cl)c4)CC3)cn(C3CCCCC3)c(=O)c21,inactive: -8.13%
18,CCSc1ncc(Cl)c(C(=O)Nc2ccc(S(=O)(=O)Nc3ncccn3)cc2)n1,inactive: 2.37%
19,COc1cccc(CNC(=O)CCCn2ncn3c(cc4occc43)c2=O)c1OC,inactive: -3.9%
20,COC(=O)CN1C(=O)CSc2ccc(S(=O)(=O)Nc3cccc(C)c3)cc21,inactive: -0.942%
21,Cc1cccc(C(=O)Nc2nc3nc(-c4ccccc4)cc(=O)n3[nH]2)c1,inactive: 0.564%
22,COc1cc(-c2nc(-c3ccc4c(c3)[nH]c(=O)n4C)no2)cc(OC)c1OC,inactive: -2.24%
23,COc1ccc(-n2c(/C=C/c3cccc(C(F)(F)F)c3)nc3ccccc3c2=O)cc1Cl,inactive: 9%
24,CCOc1ccccc1NC(=O)C1CCN(S(=O)(=O)c2ccc3[nH]c(=O)ccc3c2)CC1,inactive: -10.3%

row,Compound,"activity change, negative = inhibition"
1,CCOc1ccc(CCNC(=O)C2CCN(Cc3nc(-c4ccc(OC)c(OC)c4)oc3C)CC2)cc1OCC,inactive: -8.9%
2,Cc1ccc(S(=O)(=O)N2CCN(Cc3cc(Br)ccc3O)CC2)cc1,inactive: 3.25%
3,Cc1ccn2c(=O)cc(COc3ccc(NC(=O)COc4ccccc4)cc3)nc2c1,inactive: 5.72%
4,Cn1cc(S(=O)(=O)N2CCCCCC2)cc1C(=O)N1CCN(c2cccc(C(F)(F)F)c2)CC1,inactive: 9.33%
5,CCC(=O)N1CCc2cc(Br)cc(S(=O)(=O)N3CCCC(C(=O)NCc4ccc(F)cc4)C3)c21 (stereo not drawn),inactive: -9.16%
6,N#Cc1ccccc1NC(=O)C(=O)NCCc1csc(-c2ccc(C(F)(F)F)cc2)n1,inactive: -0.0889%
7,CCc1ccc(NC(=O)COC(=O)CCCC2=NS(=O)(=O)c3ccccc3N2)cc1,inactive: -0.889%
8,O=C1CSC2(C(=O)N(Cc3ccccc3)c3ccccc32)N1c1cccc(F)c1 (stereo not drawn),inactive: 0%
9,Cc1ccc2nc(COc3ccccc3NC(=O)c3ccccc3C)cc(=O)n2c1,inactive: 4.47%
10,COc1ccc(-c2nnc(SCC(=O)Nc3cc(OC)ccc3OC)nc2-c2ccc(OC)cc2)cc1,inactive: -10.6%
11,CCc1cccc(C)c1NC(=O)Cn1c(=O)n(-c2ccc(C)cc2)c(=O)c2c1cnn2C,inactive: -1.99%
12,COc1ccc(CCn2c(=O)c3cccnc3n(CC(=O)Nc3c(C)cccc3C)c2=O)cc1OC,inactive: -8.26%
13,COc1ccc(OC)c(NC(=O)c2ccc3c(SCC(=O)O)c4c(nc3c2)CCCC4)c1,inactive: -5.77%
14,Cc1cccc(-c2noc(-c3ccc(NCc4ccco4)c([N+](=O)[O-])c3)n2)c1,inactive: -12.6%
15,O=C(c1ccco1)N1CCN(c2nc3c(F)cc(F)cc3s2)CC1,inactive: -1.55%
16,COc1cccc(-c2ccc(-c3noc(-c4ccccc4Br)n3)c(OC)n2)c1,inactive: 12.6%
17,CCC(=O)N1c2ccccc2CC1C(=O)NCc1cccc(OC)c1OC (stereo not drawn),inactive: 4.06%
18,COc1cc(OC)cc(C(=O)Nc2cc(-c3nc4ccccc4[nH]3)ccc2C)c1,inactive: -0.294%
19,COC(=O)c1c(SC)nc2ccccc2c1OCc1ccc(Br)cc1,inactive: 1.04%
20,CCOC(=O)C1CCCN(c2nc3c(S(=O)(=O)c4ccc(Br)cc4)nnn3c3ccsc23)C1 (stereo not drawn),inactive: -21%
21,Cc1ccccc1CNC(=O)c1nn(-c2ccccc2F)nc1CO,inactive: -3.08%
22,CCn1nc(-c2ccccc2)c(-c2ccccc2)c(C(=O)Nc2ccc(S(N)(=O)=O)cc2)c1=O,inactive: 1.25%
23,COc1cccc2c1Oc1ncccc1N(C(=O)CCC(=O)NCCC(C)C)C2,inactive: -0.992%
24,COc1ccc(C(=O)Nc2ccc(-c3nnc4n3CCCCC4)cc2)cc1,inactive: 1.08%

row,Compound,"activity change, negative = inhibition"
1,O=c1c2sccc2n(Cc2cc(=O)n3ccccc3n2)c(=O)n1-c1cc(F)ccc1F,inactive: 2.52%
2,Cc1cc(C)c(NC(=O)CSc2nc3ccccc3c3nc(CCn4cncc4C)nn23)c(C)c1,inactive: -15.8%
3,O=S(=O)(c1ccc(Cl)cc1)c1nc(-c2ccccc2Br)oc1NCc1ccccc1,inactive: -0.165%
4,COc1ccc(CCNC(=O)CSc2nc3nc(C)c(Cc4ccc(C)cc4)c(C)n3n2)cc1OC,inactive: 2.12%
5,Cc1ccc(C)c(OCCn2c(C3CC(=O)N(Cc4ccc(F)cc4)C3)nc3ccccc32)c1 (stereo not drawn),inactive: 0.756%
6,CCN1CCN(C(=O)c2ccc3c(c2)N(Cc2cccc(Cl)c2)C(=O)c2ccccc2S3=O)CC1 (stereo not drawn),inactive: -0.649%
7,CCOc1ccc2nc(N3CCN(C(=O)c4ccc(S(=O)(=O)CC)cc4)CC3)sc2c1,inactive: -5.4%
8,Cc1ccc(/C=C/C(=O)Nc2nc(-c3cccs3)ns2)cc1,inactive: -9.14%
9,COc1ccc(Cn2c(=O)[nH]c3cc(C(=O)NCCC(C)C)ccc3c2=O)cc1,inactive: -0.37%
10,COc1ccc(CNC(=O)CS(=O)Cc2nc(-c3ccc(OC)c(OC)c3)oc2C)cc1 (stereo not drawn),inactive: 2.06%
11,Cc1ccc(N(CC(=O)Nc2cccc(Cl)c2C)S(=O)(=O)c2c(C)noc2C)cc1,inactive: -1.33%
12,COC(=O)c1ccc(NC(=O)CN(C)S(=O)(=O)c2ccc(Br)s2)cc1,inactive: -5.55%
13,Cc1nn2c(C)c(C(=O)NCc3ccc(OC(C)C)cc3)cnc2c1-c1ccc(F)cc1,inactive: -1.23%
14,COc1ccc(Cn2ccnc2SCC(=O)Nc2nnc(C)s2)cc1,inactive: -14.3%
15,CCN(CCCNC(=O)c1nn(-c2ccc(C)cc2)c(=O)c2c1c1ccccc1n2C)c1cccc(C)c1,inactive: 0.657%
16,Cc1ccc(CNC(=O)c2ccc(N3CCCC3)c(NC(=O)Nc3ccc(F)c(Cl)c3)c2)cc1,inactive: 0%
17,Cc1ccc2c(c1)-c1c(c(C(=O)N3CCN(c4cc(C)ccc4C)CC3)nn1C)CS2,inactive: 3.87%
18,CCn1c(=O)cc(OCC(=O)N2CCN(c3cccc(C)c3C)CC2)c2ccccc21,inactive: -0.297%
19,Cc1cccc(NC(=O)CN2C(=O)C(c3ccc(F)cc3)=NC23CCCCCC3)c1,inactive: 0.108%
20,COc1cccc(CNC(=O)CN2C(=O)COc3ccc(S(=O)(=O)N4CCOCC4)cc32)c1,inactive: 0.0273%
21,CC(=O)c1c(C)oc2c1cc(NS(=O)(=O)c1ccc(C(C)(C)C)cc1)c1ccccc12,inactive: -2.42%
